PubChem BioAssay AID1745853 (National Center for Advancing Translational Sciences (NCATS), 2022)
Some of the results follow. Shown are side measurements of this screen, not its main read-out; they come without a call.

Key:
Test in all cases: Primary Screen for Target Class Profiling of Small Molecule Inhibitors of Methyltransferases
[1] = molecular target: Glycine N-methyltransferase (Homo sapiens) (UniProt Q14749); details: purified enzyme, MTase-Glo SAH luminescence; measured here: GNMT inhibition; at 40 µM; stronger effect = lower value
Summary of the method: (§1)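 Each enzyme was assayed with SAM and its substrate. SAH formation detected by MTase-Glo luminescence; single-point 40 uM screen[…].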

[2] = molecular target: Guanidinoacetate N-methyltransferase (Homo sapiens) (UniProt Q14353); details: purified enzyme, MTase-Glo SAH luminescence; measured here: GAMT inhibition; at 40 µM; stronger effect = lower value
Summary of the method: as §1

[3] = molecular target: Histamine N-methyltransferase (Homo sapiens) (UniProt P50135); details: purified enzyme, MTase-Glo SAH luminescence; measured here: HNMT inhibition; at 40 µM; stronger effect = lower value
Summary of the method: as §1

[4] = molecular target: Nicotinamide N-methyltransferase (Homo sapiens) (UniProt P40261); details: purified enzyme, MTase-Glo SAH luminescence; measured here: NNMT inhibition; at 40 µM; stronger effect = lower value
Summary of the method: as §1

[5] = molecular target: Phenylethanolamine N-methyltransferase (Homo sapiens) (UniProt P11086); details: purified enzyme, MTase-Glo SAH luminescence; measured here: PNMT inhibition; at 40 µM; stronger effect = lower value
Summary of the method: as §1
On the % scale 0 is the no-effect control and ±100 the full control effect.

Compound | activity change, negative = inhibition [1] [%] | activity change, negative = inhibition [2] [%] | activity change, negative = inhibition [3] [%] | activity change, negative = inhibition [4] [%] | activity change, negative = inhibition [5] [%]
CN1C(=O)c2cc(C(=O)NCCN3CCCC3)nn2CC1(C)C(=O)NC1CCCCCC1 (centres undefined) | 3.95 | 0.037 | 2.41 | 2.11 | 0.2
CC[C@H](C)/C=C(C)/C=C/C(=O)Cc1cc(O)c(C)c(O)c1C=O | -1.91 | 2.17 | 4.38 | -10.3 | 1.19
CCC1c2ccc(C)n2CCN1C(=O)Nc1ccccc1Cl (centres undefined) | -9.69 | 1.83 | -6.09 | -6.84 | -7.47
O=C(NC[C@H]1OC[C@@H](NC2CCCCC2)[C@@H]1O)N1CCOCC1 | -2.76 | -9.88 | -1.92 | -8.4 | -4.14
CCc1cc2c(cc3n2CC(C)(C(=O)NC2CCCCCC2)N(C2CCCC2)C3=O)s1 (centres undefined) | 2.33 | 0 | 7.14 | -1.44 | 0.067
CC(C)CCNC(=O)C1(C)Cn2c(cc3ccccc32)C(=O)N1Cc1ccc(OC(C)C)cc1 (centres undefined) | 2.75 | 1.61 | 3.53 | -2.99 | -2.94
CCOC(=O)c1cc2n(n1)CC(C)(C(=O)NC1CCCCCC1)N(Cc1ccccc1C)C2=O (centres undefined) | 5.92 | 2.28 | 7.42 | 3.54 | 5.21
O=[N+]([O-])c1cc(S(=O)(=O)Nc2ccc(O)c3ccccc23)ccc1Cl | – | -33.1 | – | -22.2 | -88.1
CCCn1c(=O)c2ccc(C(=O)NCC(C)C)cc2n2c(=O)n(Cc3cccc(F)c3)nc12 | 4.25 | 1.59 | 11.6 | 0.658 | 7.41
CC(=O)Nc1c2n(c3ccc(F)cc13)CC(C)(C(=O)NCCC(C)C)N(Cc1ccc(F)cc1)C2=O (centres undefined) | -13.4 | 0.119 | 0.421 | -6.91 | -0.726
CCCCNC(=O)c1cc2n(n1)CC(C)(C(=O)NC1CCCCC1)N(C)C2=O (centres undefined) | 6.19 | 0 | 3.76 | 9.68 | 3.19
CN1CCCCCCN(C(=O)Cc2cccc(F)c2)[C@H]2CCC[C@H]2C1=O | -0.35 | -0.437 | 2.15 | -5.82 | -1.12
CCC(C)NC(=O)c1ccc2c(=O)n(C)c3nnc(SCC(=O)Nc4cccc(C)c4)n3c2c1 (centres undefined) | 2.23 | 3.68 | 0.409 | 1 | 1.94
CC(C)CCNC(=O)C1(C)Cn2nc(C(=O)NCc3ccc(F)cc3)cc2C(=O)N1C (centres undefined) | -0.612 | 4.31 | -1.85 | 2.62 | 0.775
COc1ccc(Cn2c(=O)c3ccccc3n3c(-c4ccc(F)c(F)c4)nnc23)cc1 | -3.12 | 0.512 | 2.14 | 1.86 | -1.56
Cn1c2c(c3ccccc31)C(C(=O)NCc1ccccc1)N(c1ccc(Cl)cc1)C(=O)CS2 (centres undefined) | 9.76 | 0 | 6.27 | 4.76 | 6.91
CN(C)C[C@@H]1CN(S(C)(=O)=O)C[C@H]1NC(=O)CC1CCN(C)CC1 | -1.92 | -1.81 | 0.799 | -1.7 | -5.5
COC[C@H]1NC(=O)CC[C@H]1C(=O)NCCC1=CCCCC1 | -1.05 | 0.187 | 0.732 | 4.43 | -3.14
COc1cc(/C=C/C(=O)N2CCC=CC2=O)cc(OC)c1OC | – | -27 | – | -8.05 | 3.49
O=C(c1ccccn1)c1cnn2c(-c3ccncc3)ccnc12 | -3.36 | 0.841 | 3.95 | -13 | 1.31
CCn1cc(CNc2ccc(-c3ccccc3OC)nn2)cn1 | -5.81 | -1.32 | -1.13 | 0.127 | 3.34

Compound | activity change, negative = inhibition [1] [%] | activity change, negative = inhibition [2] [%] | activity change, negative = inhibition [3] [%] | activity change, negative = inhibition [4] [%] | activity change, negative = inhibition [5] [%]
O=C(O)CCn1ncc2cc(OC3CCN(C(=O)Oc4ccccc4Cl)CC3)ccc21 | -18.7 | -9.67 | -8.85 | -12 | 72.9
CCc1nc(-c2cccc(C)c2)c(-c2ccnc(NC(=O)c3ccccc3)c2)s1 | 7.36 | -0.627 | 6.37 | -23.5 | -5.31
Cc1cc(C(=O)N[C@H]2[C@H](O)[C@H](O)C[C@@H]2c2ccc(N3CCOCC3)nc2)n(C)n1 | -5.26 | -7.49 | -3.82 | -9.06 | -9.41
CCC(=O)N1CCc2sc(C(=O)NCc3ccc4c(c3)OCO4)cc2C1 | -8.95 | -8.25 | -6.39 | -12.2 | -6.61
O=C1Cc2ccccc2N1 | – | 11.4 | – | -5.84 | 1.67
CC(C(=O)NCc1ccc(F)cc1)n1ccc2cc(S(=O)(=O)N3CCCC3)ccc21 (centres undefined) | 4.17 | 0 | -0.326 | 1.77 | 0.485
Cc1ccc2c(c1)N(S(=O)(=O)c1ccc3[nH]c4c(c3c1)CCCC4)CCO2 | 14.2 | 3.28 | 9.86 | 1.35 | 5.83
CC(=O)Nc1cccc(-c2ncc3c(n2)OCCN(CC2CC2)C3=O)c1 | -10.5 | -7.66 | -4 | -9.32 | -6.1
O=C1COCCN1C1CCN(Cc2ccc(F)cc2)CC1 | -2.08 | -5.23 | -4.01 | -6.7 | -6.42
COc1ccc([C@H]2OC[C@H]3[C@@H]2CO[C@@H]3c2ccc(O[C@@H]3O[C@H](CO)C(O)[C@H](O)[C@H]3O)c(OC)c2)cc1OC (some centres undefined) | 2.9 | 6.64 | 12.1 | -3.8 | 7.89
CC(C)NC(=O)c1ccccc1OCC1CCCN(Cc2cn(C)c3ccccc23)C1 (centres undefined) | -4.9 | -6.28 | -60.4 | -16 | -0.179
CN1CCN(CCCNC(=O)C2CCc3sc(C(=O)N4CCCCCC4)cc3C2)CC1 (centres undefined) | -3.02 | 0.135 | -7.22 | -4.01 | -3.25
CNC(=O)[C@H]1O[C@@H](n2cnc3c(NCc4cccc(I)c4)ncnc32)[C@H](O)[C@@H]1O | -3.47 | 2.66 | -11.4 | -9.32 | -3.95
CCc1ccc(CNC(=O)c2cc3n(n2)CC(C)(C(=O)NC2CCCCC2)N(C)C3=O)cc1 (centres undefined) | -3.62 | -4.67 | 2.04 | -3.89 | -7.07
CC(C)c1nccn1CCCNC(=O)c1ccc(N2CCCC(CO)C2)nc1 (centres undefined) | -8.77 | -15.8 | -66.6 | -17.3 | -11.4
CCc1ccc(CNC(=O)c2ncn3c2C(=O)N(C2CC2)C(C)(C(=O)NCc2cccc(C)c2)C3)cc1 (centres undefined) | 1.68 | 5.66 | 14.8 | 2.4 | 10.4
COc1ccc(CNC(=O)Cn2ccc3cc(S(=O)(=O)N4CCCCC4)ccc32)c(OC)c1 | 4.68 | 0 | 5.77 | -9.86 | 5.29
O=C(c1cnccn1)N1CCC(c2nc(C3CC3)no2)C1 (centres undefined) | 0.827 | 2.05 | 2.57 | -1.79 | 0.074
CCOC(=O)c1cc2n(n1)CC(C)(C(=O)NCCC(C)C)N(Cc1ccc3c(c1)OCO3)C2=O (centres undefined) | -0.116 | 0 | -0.872 | 3.01 | -3.13
COCCc1noc(-c2ccc(N(C)Cc3ccnc(C)c3)nc2)n1 | 0.088 | 1.28 | -4.7 | -3.1 | 2.8
C=C1C(=O)O[C@@H]2/C=C(\C)C(=O)/C=C/[C@](C)(O)C[C@@H](OC(=O)C(C)C)[C@@H]12 | 0 | 1.79 | 6.33 | -13.7 | -9.04

Compound | activity change, negative = inhibition [1] [%] | activity change, negative = inhibition [2] [%] | activity change, negative = inhibition [3] [%] | activity change, negative = inhibition [4] [%] | activity change, negative = inhibition [5] [%]
O=C(Nc1ccc2c(N3CCOCC3)ncnc2c1)c1cccc(Cl)c1 | -52.3 | -42.2 | -83.1 | -39 | -23.7
CC1(C(=O)NC2CCCC2)Cn2c(cc3sccc32)C(=O)N1Cc1ccccc1Cl (centres undefined) | -1.32 | 3.88 | 2.35 | -9.04 | -5.3
COC(=O)c1cc2n(n1)CC(C)(C(=O)NC1CCCCCC1)N(Cc1cccc(OC)c1OC)C2=O (centres undefined) | 0.484 | 6.4 | -3.96 | -5.06 | 0.883
CC(C)Cn1c(=O)c2ccccc2n2c(SCC(=O)Nc3ccc(F)cc3)nnc12 | -0.705 | 0 | 10.8 | -5.91 | 3.91
COc1ccc(CNC(=O)c2cc3n(n2)CC(C)(C(=O)NCc2ccc(C)cc2)N(C)C3=O)cc1 (centres undefined) | 8.12 | 0.553 | 5.57 | 8.83 | 6.84
COCC1OC(n2cnc3c(=O)[nH]cnc32)C(O)C1O (centres undefined) | 5.76 | 6.36 | -7.02 | -5.76 | -0.003
CN(C)S(=O)(=O)c1ccc(CNC(=O)C2CCCN(CC(N)=O)C2)cc1 (centres undefined) | -3.84 | -6.38 | -2.8 | -6.86 | 2.02
COCCN(C)C[C@@H]1CN(C(=O)Cn2ncc3ccccc3c2=O)C[C@@H]1CO | -8.29 | -9.95 | -6.81 | -13.7 | -17.9
CCCn1c(=O)c2ccccc2n2c(SCC(=O)NC3CCCCC3)nnc12 | 3.17 | 6.3 | 4.5 | 1.16 | 3.82
Cc1ccccc1NC(=O)N1CCC(N(CCC(C)C)C2CCOCC2)CC1 | -5.87 | -6.8 | -1.67 | -9.7 | -1.65
CC1=C(CC/C(C)=C/C(=O)O)[C@@]2(C)CCCC(C)(C)C2CC1=O (some centres undefined) | -5.37 | -3.92 | 6.32 | -20.4 | 1.64
CC1(C(=O)NC2CCCCC2)Cn2c(nc3ccccc32)C(=O)N1Cc1ccc(F)cc1 (centres undefined) | 1.62 | 0 | 2.73 | 2.78 | -2.68
CN(CCc1ccccn1)C(=O)c1cn(Cc2cccc(C(F)(F)F)c2)nn1 | -4.2 | -6.6 | -1.61 | -10.7 | -8.4
COC1CC(=O)C23C(=O)NC(CC(C)C)C2C(C)C(C)=CC3/C=C(\C)CCC1O (centres undefined) | 1.82 | 8.29 | 7.01 | -6.95 | 4.98
O=C(c1ccc2nccnc2c1)N1CCCCC1 | 7.34 | 6.93 | 4.38 | -6.5 | 2.3
Fc1cccc(Nc2ncc(-c3cncnc3)c3c2OCC3)c1 | -6.66 | -7.33 | -4.29 | -9.51 | -9.44
Nc1cc(C(=O)N2CCc3onc(-c4ccc(-c5ccccc5)cc4)c3C2)[nH]n1 | -7.87 | -2.43 | -4.82 | -2.86 | -0.434
COc1cccc(CNC(=O)Cn2nc3n(CC(C)C)c(=O)c4ccccc4n3c2=O)c1 | -5.86 | 2.39 | -3.63 | -12.9 | -11.6
CCc1nnc2ccc(NC3CC3)nn12 | -8.06 | -6.29 | -3.1 | -18.1 | -12.1
CC(=O)OCC1OC(OC2COC(OC3COC(OC4C(OC5C(CO)OC(OC6CCC7(C)C(CCC8(C)C7CC=C7C9CC(C)(C)CCC9(C(=O)OC9OC(CO)C(O)C(O)C9OC9OCC(OC%10OCC(O)(CO)C%10O)C(O)C9O)C(O)CC78C)C6(C)C)C(O)C5O)OCC(O)C4O)C(O)C3O)C(O)C2O)C(OC(=O)/C=C/c2ccccc2)C(O)C1OC(C)=O (centres undefined) | 0.243 | 17.5 | 10.9 | 7.15 | 7.43
